# From the supplement of paper PMC11417369
# Some of the results follow.
# Test system: PfHDP1 homeodomain (GST-tagged)
# Assay: gcPBM binding intensity (ln(normalized median fluorescence intensity)); higher = stronger DNA binding
# Outline: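 DNA-binding domains from P. falciparum, fused to GST and produced in E. coli, were put on an Agilent 4 × 180k double-stranded probe array for 1 h in 1× PBS holding 1% milk, 0.2 mg/ml BSA, 0.5% salmon testes DNA and 0.03% Triton X-100. Probes were primer-extended, 36 bp long and drawn from intergenic genomic regions, with negative controls included. After Alexa488 anti-GST antibody detection and a 488 nm scan, binding intensity was set as the highest Masliner-normalised natural-log median intensity across replicate spots of either probe orientation.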
row,Sequence,gcPBM binding intensity (ln)
1,TTTTAAAAAAAAAAAATAAATAAATAAGATATTATC [CACACA_negctrl_site1791],6.02
2,TCATATATATTATACACACACATATATAAATATATA [CACACA_site967],7.11
3,AAAAAAAAAAAAAAAGCACACATATAAATATGAATA [CACACA_site8391],6.66
4,TATATATATATATAATGTACAAACTCCTTTATATAT [XGTACX_site4545],9.17
5,AGGTTGAATATATATTTGTGATTATATTATTTTATT [CACACA_negctrl_site778],6.39
6,CCATGTCAAACATTTGCACACAAAAAAATAAAAATT [CACACA_site4546],9.71
7,GTTTTTTTTATATATTGTACAAATAATATATTATAT [XGTACX_site29],7.42
8,TCATTCAAAAAAAATCAACACACAGTTACATAGCTC [CACACA_site8700],6.61
9,TTTTCAAAAATATACACACACATAAATATATGTATA [CACACA_site777],6.48
10,AAAAAAATTTTAAAATGTACAAATTTTAATATATAT [XGTACX_site7628],6.41
11,ATTCTAAATATGTATATACACACTTTTAATATTCAT [CACACA_site4118],6.93
12,TTTTTTATTTAAAGTAGTACTTTTTAGAAAACAAAA [XGTACX_site6759],6.06
13,TTATTTTAAATTAACACATGCATAATATATGTATAT [TGCATGCA_site597],6.31
14,TTTATGAAACAGTGCACACATAAAAATAAATACATA [CACACA_site5631],10.2
15,TAAAATTATGTAATAACACACATATACAATACATAT [CACACA_site1236],6.72
16,TTATGAATATTGATGTATAAAAAAATATATATGTTA [XGTACX_negctrl_site390],6.45
17,AAAGGTTTGCGTTGTGTGCACAAAATAAATATATAA,10.6
18,GATATATAACTTTTAACACACAAAAAAAAAAAAAAT [CACACA_site7653],6.61
19,GAAAATTCATAAAAATGTACTTATTATATTATTTAT [XGTACX_site2169],5.98
20,CAAAATATTTTTTCCTGTACATAATTCCTATTTCAC [XGTACX_site3590],6.53
21,ATATAATAATATGGTTGTACATAAATAACACATGAA [XGTACX_site6592],6.7
22,ATATATATATATATATGTACATACATATTGTTTGGT [XGTACX_site2284],9.36

row,Sequence,gcPBM binding intensity (ln)
1,TAATAATAGAAACACACACACATAGACATATATATA [CACACA_site1307],6.97
2,ATGATTATACAAAATATACACACGTGTAGACAAATA [CACACA_site1175],6.91
3,AATATATATATAAATAATATACCTATATATTTTTTG [XGTACX_negctrl_site407],6.04
4,AAAAACAATTTAATCACACATATATGTCACAAAGAT [CACACA_site5043],6.81
5,CACTTAAAAAGCTAACGTACAAATACACATATATAA [XGTACX_site1851],6.62
6,ATATTAAATATTATCACACACATAATTATTTCCATA [CACACA_site2334],6.58
7,TTATTTCTAACATGATGTACTTTTATATTATATAAT [XGTACX_site3574],6.67
8,TTTTTTTTATATATCTGTACATATATATATATATAT [XGTACX_site8280],9.15
9,TATTTTCAAAATGTTGTACACACAAAAAAAAAAAAA [CACACA_site8437],6.57
10,ATATACTTTTCAATGTGTACTTATGAATATATATGT [XGTACX_site7972],6.43
11,ATTATTACTATATGTGTACACATCAACTGGTTTGAT [CACACA_site5563],7.39
12,TTGGTAAATATATTTTGAATATAAGAAATATAGACG [CACACA_negctrl_site1634],6.57
13,AGTAGCGGCGGTATCATGCACACGTATAGATTGTAA [CACACA_site1587],7.94
14,CCACGTATACGATGCACACGTATGCTTTATATATAG [CACACA_site4108],8.58
15,TTGTTTATATATATATGTACATATTTTAAGGCATCC [XGTACX_site6976],6.68
16,GTTGAAAAAAATATATGTACGTATATATGTATGTAT [XGTACX_site8201],6.91
17,ATTAAATCCGCACGCACACACACATATTAAGAAAAA [CACACA_site6062],7.6
18,TAATAAATTCATAATTGTACATTGAAGTATTATGCA [XGTACX_site5121],6.23
19,TTTTTTTATTTTGTATGTACATATCATTTGATATTC [XGTACX_site8449],6.9
20,TATATATATAACAGAATGCACTTTATATGTTCATAT [GTGCAC_site9880],8.32
21,TATACGTATACCTATACACACATATATTTATTTATA [CACACA_site6716],6.77
22,AAAAAATACAGACACACACACACACGCATATAAATA [CACACA_site7644],6.86

row,Sequence,gcPBM binding intensity (ln)
1,GATATCCTTATATTTGCACACACACCCAATAAAATG [CACACA_site1028],9.87
2,GCAAAGCACAAATATGCATGTAGATATAGAATAATG [TGCATGCA_site382],6.77
3,AACCCAAAATAATTATGTACATATTTTTAAATATAT [XGTACX_site6487],6.78
4,ATAATCCTTGGACACACACACACACTAGTAAATAAA [CACACA_site4423],6.96
5,TTTGTGTATATAACAGTGCAATATTATAAATATAAA [GTGCAC_site9750],9.76
6,AAAAAAGAAAAAAAGTGTACAATATTTATTACATAT [XGTACX_site2277],6.25
7,TAATTATTTTTATATTGTACAATATGTAAATATATA [XGTACX_site592],6.39
8,AATTAAAAAAAAAAAAAAAAAAAAAAATGAAAAAAA [CACACA_negctrl_site1073],5.6
9,ATAAATAAATAAATCTGTACATATGTATATGTATAT [XGTACX_site4537],6.14
10,AAAAAAAAAAAAAAAAGTACATACAACATTATGAAA [XGTACX_site207],6.51
11,TTTTTTGAATTTAAAAGTACAGGCTTTTACCAAATA [XGTACX_site1356],5.92
12,CTTAAAGGGAAAAATACACACATATAAATATTATGT [CACACA_site2225],6.19
13,ACTTAATTTTTTTTATGTACTTATTTAAAAAATTTT [XGTACX_site2712],6.66
14,TTAGTAGTATTATGTAGTACATAATTATCATATCAT [XGTACX_site817],6.48
15,AACACGCGCAGACACACACACACACGCACATATATA [CACACA_site7104],7.43
16,TTTTTTTTCTTTTTTTTAAGAAATAAATAAATAATT [XGTACX_negctrl_site137],5.55
17,CATTTCTATATAAGCACACACGTGGAATTTTTTTTT [CACACA_site5537],6.82
18,TCATATTATAAATAAATAAATAAATATATATATATA [CACACA_negctrl_site577],8.76
19,AAATCGTAATATATTTGTACTTATTTGAAAAATCCA [XGTACX_site8141],6.11
20,ATTATTTGAACAACAAAAAAAAAGAAAAGAAAAGAA [CACACA_negctrl_site1031],6.37
21,TTTTTTCTTTTTATGTGTACTTATTTTATTTAATAA [XGTACX_site1080],6.54
22,TATATTTCATTATATTGTACAAAATATATATATTAT [XGTACX_site4644],6.59

row,Sequence,gcPBM binding intensity (ln)
1,ATGTATATAAATATACGTACATAAATATAAGTATAG [XGTACX_site7155],6.26
2,ATACATGAATAAATATGTACACATATAAAAACATAT [XGTACX_site2740],6.74
3,CATTATATATATTACTAAAAATTTTACCCCTTAGCT [CACACA_negctrl_site302],6.59
4,TAAATTATAAATTGCACACATATTTTTATATTTATA [CACACA_site2976],10.2
5,ATATTTTTAGATTCAGAAAAAAGATTCAACTTACTC [CACACA_negctrl_site1357],6.07
6,TATTTCATATGAAGAAGTACTATTAATAATTTCCTT [XGTACX_site6587],6.12
7,ATATATGCATATATATGTACATATATATATATATAT [XGTACX_site7403],9.33
8,AATAAATAAAAAATTACACACATATATATAAATATA [CACACA_site3434],6.23
9,ATACGAATAAATTTCGCATGCAGCATATATATCAAT [TGCATGCA_site612],6.5
10,TGTACAAATATGTTGAAAATAAAATTTCAATATATT [XGTACX_negctrl_site13],5.88
11,AACGAAAATAAGAAAAGTACAAAAAATACCAAATAA [XGTACX_site6171],6.55
12,TTCTTTTTTCGACACACACACACAAGAAGATATATA [CACACA_site7456],7.11
13,ATATATATATATAATACACACTTATGAAATGTCTAA [CACACA_site5077],8.79
14,TTAATACATACATTCACACACACTAATTGTATATTT [CACACA_site9362],6.85
15,AAAAAAAAACAGAAAACACACAAATTATCTTAGAAT [CACACA_site309],6.52
16,TTTAATTTTTAATCAGTGCAATATTATATAATATAT,9.62
17,TACAATAATGATTGTTGTACATTATTGATATTTAAA [XGTACX_site2940],5.99
18,AATAATTCATCATATGCACACACAATACCAAAATGT [CACACA_site7945],9.26
19,TATATGAAATATTATGCACACAATATATAATATGAT [CACACA_site936],10.2
20,ATTAATTCGTTTTGTACACACATAATGAATAATTTA [CACACA_site2235],6.44
21,TCATTTTAATTAAAAGTGCAAAAAATAATATAACTA [GTGCAC_site9968],8.81
22,ATATATATATATATATGTACATATATATTGTTGATC [XGTACX_site8893],9.25
